Assay results reported in article PMC4336329 (PLoS ONE, 2015).
In all, about 310,000 compounds went through this assay and about 2,200 (0.71%) showed an effect of 50% or more. The effect is printed as a negative number. The list shows a part of the results.

Each compound was assayed against human ether-à-go-go-related gene (hERG) potassium channel (human, UniProt Q12809) (assay: primary screen, population patch clamp on CHO cells stably expressing hERG).
Sequence of human ether-à-go-go-related gene (hERG) potassium channel (Q12809 whole entry, looked up): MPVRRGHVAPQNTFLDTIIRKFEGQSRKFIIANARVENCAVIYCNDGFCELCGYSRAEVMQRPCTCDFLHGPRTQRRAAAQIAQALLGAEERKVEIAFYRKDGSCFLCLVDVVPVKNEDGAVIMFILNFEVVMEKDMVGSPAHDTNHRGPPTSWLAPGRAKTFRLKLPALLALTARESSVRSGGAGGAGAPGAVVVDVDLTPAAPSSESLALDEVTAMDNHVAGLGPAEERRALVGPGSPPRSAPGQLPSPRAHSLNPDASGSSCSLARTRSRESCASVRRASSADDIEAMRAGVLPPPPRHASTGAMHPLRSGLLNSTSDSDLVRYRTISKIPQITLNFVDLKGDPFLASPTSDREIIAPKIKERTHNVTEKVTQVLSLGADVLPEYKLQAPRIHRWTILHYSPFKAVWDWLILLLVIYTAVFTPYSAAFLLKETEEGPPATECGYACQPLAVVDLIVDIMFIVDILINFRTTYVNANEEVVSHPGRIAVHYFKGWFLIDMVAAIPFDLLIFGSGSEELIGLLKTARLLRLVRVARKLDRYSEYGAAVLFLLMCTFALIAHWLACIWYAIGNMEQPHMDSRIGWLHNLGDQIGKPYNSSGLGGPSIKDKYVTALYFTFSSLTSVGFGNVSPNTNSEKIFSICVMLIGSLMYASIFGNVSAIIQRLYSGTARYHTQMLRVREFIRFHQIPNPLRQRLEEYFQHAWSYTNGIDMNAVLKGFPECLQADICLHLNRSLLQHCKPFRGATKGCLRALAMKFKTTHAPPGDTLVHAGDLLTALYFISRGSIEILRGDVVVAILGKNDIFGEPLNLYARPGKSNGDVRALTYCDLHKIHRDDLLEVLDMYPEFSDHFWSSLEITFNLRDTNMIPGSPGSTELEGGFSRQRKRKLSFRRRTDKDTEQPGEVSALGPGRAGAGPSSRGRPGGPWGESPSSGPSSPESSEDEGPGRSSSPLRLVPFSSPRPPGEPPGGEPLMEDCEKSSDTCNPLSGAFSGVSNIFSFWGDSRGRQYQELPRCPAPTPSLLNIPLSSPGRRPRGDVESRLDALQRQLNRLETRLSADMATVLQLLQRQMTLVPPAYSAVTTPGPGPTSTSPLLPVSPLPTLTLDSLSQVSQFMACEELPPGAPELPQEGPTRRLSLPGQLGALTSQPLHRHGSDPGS

Compound	hERG current change (%, negative = inhibition) at 1uM
CCc1ccc(S(=O)(=O)Nc2cc(SCC(=O)O)c(O)c3ccccc23)cc1	15%
Cc1cccc(NC(=O)NNC(=O)c2ccc(C)c([N+](=O)[O-])c2)c1	3.38%
CCOC(=O)C1CCN(CC(=O)Nc2c(C(=O)OC)n(C)c3cccc(C)c23)CC1	-3.15%
COc1ccc(C(=O)Nn2c(SCC(=O)NCc3ccccc3)nc3ccccc3c2=O)cc1	-5.21%
CSc1nc2ccc(NC(=O)c3ccc(=O)[nH]c3)cc2s1	10.8%
O=C(CCC(=O)c1ccccc1)NC1CCCN(Cc2ccccc2F)C1 (centres unmarked)	9.81%
N#Cc1c(SCC(=O)Nc2cccc(C(F)(F)F)c2)sc2c(O)cc(=O)[nH]c12	8.39%
Cc1cc2nnc(SC3CCOC3=O)n2c2ccccc12 (centres unmarked)	-4.23%
O=C(Nc1ccccc1)C(=O)c1cn(CC(=O)N2CCCCC2)c2ccccc12	-20.6%
CCN(C(=O)Cc1c(C(=O)O)[nH]c2ccccc12)c1ccc(OC)cc1	17.9%
O=C(Nc1ccc(O)c(-c2nc3ccccc3s2)c1)c1cc(=O)c2ccccc2o1	8.27%
Cc1cc(C)nc(NS(=O)(=O)c2ccc(NC(=O)C(C)Oc3ccccc3F)cc2)n1 (centres unmarked)	12.2%
CCCCCn1c(=O)c(C(=O)NCc2ccc(Cl)cc2)c(O)c2ccccc21	14.4%
O=C(COc1ccccc1)N=C1SC2CS(=O)(=O)CC2N1c1ccccc1F (centres unmarked)	5.41%
COc1ccc(-n2c(=S)[nH]c3cc(C(=O)Nc4cc(C(N)=O)ccc4OC)ccc3c2=O)c(OC)c1	16.6%
CC(=O)Oc1ccc2ccccc2c1C(NC(=O)Cc1ccccc1)c1ccccc1 (centres unmarked)	-0.824%
N=c1oc2cc(O)ccc2cc1C(=O)Nc1ccccn1	13.1%
CC(=O)c1ccc(NC(=S)N2CCCC(CO)C2)cc1 (centres unmarked)	12%
Cc1nc2ccc(NC(=S)NC3CCCCC3)cc2nc1C	8.08%
O=C(Cn1cc(C(F)(F)F)ccc1=O)NCc1ccc(F)cc1	12.5%
O=[N+]([O-])c1ccc2oc(C3CCCCC3)nc2c1	14.4%
Cc1cc(C)cc(N(C(=O)c2csnn2)C(C(=O)NC2CCCC2)c2cccnc2)c1 (centres unmarked)	13.7%
CSc1ccccc1NC(=O)CSc1nnc(Cc2ccccc2)o1	8.85%

Compound	hERG current change (%, negative = inhibition) at 1uM
CCC(=O)c1c[nH]c(C(=O)NCc2cccnc2)c1	8.2%
Cn1cc([N+](=O)[O-])c(C(=O)NCc2cc3ccccc3[nH]2)n1	12.5%
CC(C)NC(=O)CSc1nnc(CNC(=O)OC(C)(C)C)n1C	14.8%
Cc1oc(-c2ccccc2)nc1C(=O)O	12.9%
CCOc1ccc(CCNC(=O)CCS(=O)(=O)c2ccc(Br)cc2)cc1OCC	11%
Cc1ccc(-c2nc(N)n(S(=O)(=O)c3ccc(C)cc3)n2)cc1	5.57%
Cc1cccc(S(=O)(=O)c2c(N)n(-c3ccccc3)c3nc4ccccc4nc23)c1	6.06%
CCCn1c(NCc2ccc(C)o2)nc2ccccc21	-9.6%
C/C(=N/NC(=O)CNC(=O)c1cccnc1)c1ccco1	14.4%
COc1ccc(CCN(C(=O)C(F)(F)F)C(C(=O)NC2CCCCC2)c2cccs2)cc1 (centres unmarked)	18.8%
O=C(Nc1ccsc1C(=O)O)c1ccccc1Cl	16.1%
Cn1cccc1/C=N\NC(=O)Cc1ccc(Br)c2ccccc12	-2.65%
CCCCN(C(=O)c1ccc(S(=O)(=O)N2CCOCC2)cc1)C1CCS(=O)(=O)C1 (centres unmarked)	3.33%
CCN(CC(=O)NCc1ccc(F)cc1)C(=O)Cc1c(F)cccc1Cl	-1.62%
COCC(=O)n1cc(C(=O)OC)c2ccccc21	4.26%
NC(=O)c1ccc(NC(=O)CSc2nnc(-c3cccnc3)n2Cc2ccco2)cc1	11.3%
Cc1cc(-c2csc(NC(=O)c3cc4ccccc4o3)n2)c(C)n1C	0.353%
COc1ccc(NC(=O)c2nc[nH]c2C(=O)N[C@@H](C)C(=O)OC(C)(C)C)cc1	5.23%
Cc1cccc(NC(=O)C2CCN(c3nc(C)cc(C)n3)CC2)c1	-5.84%
C=CCn1c(NCc2ccccc2)nc2ccccc21	-9.87%
Cc1c(C)n(C)c2ccc(C(=O)NCCCN3CCCCC3)cc12	0.736%
CC(NC(=O)CSc1n[nH]c(=O)[nH]c1=O)C1CC2CCC1C2 (centres unmarked)	10.8%
CC(=O)Oc1ccccc1C(=O)Nc1ncc([N+](=O)[O-])s1	6.51%

Compound	hERG current change (%, negative = inhibition) at 1uM
CC1CN(c2c3c(nc4ncnn24)CCCC3)CC(C)O1 (centres unmarked)	13.7%
COc1ccccc1N1CCN(C(=O)c2ccc(S(=O)(=O)N3CCCCC3)cc2)CC1	10.5%
Cc1ccc(-c2csc3ncnc(N4CCN(C(=O)c5ccccc5)CC4)c23)cc1	-4.95%
Cc1c(F)cccc1NS(=O)(=O)c1ccc2c(c1)NC(=O)CO2	9.68%
N/C(Cc1cccc2ccccc12)=N\OC(=O)c1cccs1	15.6%
CN1CCN(NC(=O)c2cccs2)CC1.Cl	5.44%
CC(C)c1cc2c(c(O)c1O)[C@@]13CCCC(C)(C)C1CC2OC3=O (some centres unmarked)	-0.654%
O=C(Nc1cnn(Cc2ccc(F)cc2)c1)C(c1ccccc1)c1ccccc1	1.78%
O=C1CC(c2ccccc2)CN1C(=O)c1cccnc1 (centres unmarked)	10.8%
O=C(O/N=C/c1ccc(Cl)cc1)C1CCCCC1	11.8%
O=C(CSc1nnc(Cc2ccccc2)o1)NCc1ccc2c(c1)OCO2	10.4%
O=C(CCC(=O)N1CCc2ccccc2C1)NCCc1ccc(Cl)cc1	-0.546%
O=C(Cn1cc(C(F)(F)F)ccc1=O)N1CCN(S(=O)(=O)c2ccccc2)CC1	1.04%
Cc1ccc(S(=O)(=O)NCC(=O)OCC(=O)NCCc2ccccc2)cc1	15.1%
COc1ccc(/C=N/NS(=O)(=O)c2ccc(NC(C)=O)cc2)cc1	2.08%
O=C(CC1S/C(=N/N=C/c2ccco2)NC1=O)Nc1cccc(Cl)c1Cl (centres unmarked)	10.2%
O=C(CCc1ccccc1)Nc1ccccc1C(F)(F)F	10.3%
Cc1ccc(N(Cc2ccccc2O)C(=O)c2ccccc2F)cc1	15.5%
COCCn1c(N)c(Sc2ccc(C)cc2)c(=O)[nH]c1=O	16.2%
O=C(CC(c1ccccc1)c1ccco1)N1CCCCC1 (centres unmarked)	6.99%
O=C(Nc1cccc([N+](=O)[O-])c1)c1ccncc1	-7.08%
CCC(=O)Nc1ccc2c(c1)ncn2-c1ccc(C)cc1	13.6%
COc1ccc(N(CC(=O)N/N=C/c2cc3ccc(OC)cc3nc2Cl)S(=O)(=O)c2ccccc2)cc1	7.26%

Compound	hERG current change (%, negative = inhibition) at 1uM
CCC(C)NC(=O)Cc1ccc(-c2ccccc2)cc1 (centres unmarked)	13%
Cc1csc(NC(=O)NCC2CCCC(CNC(=O)Nc3nc(C)cs3)C2)n1 (centres unmarked)	17.7%
CN(CC(=O)Nc1cccc(F)c1)CC(=O)N1CCc2ccccc21	-7.9%
CC(CCc1ccccc1)NC(=O)C(Cc1ccccc1)NS(=O)(=O)c1cccs1 (centres unmarked)	17.3%
COc1ccc(N(CC(=O)NCc2ccc(F)cc2)C(=O)c2snc(C(N)=O)c2N)cc1	12.9%
CCCCN(C(=O)CC(c1ccccc1)c1ccccc1)c1c(N)n(CCC)c(=O)[nH]c1=O	12.1%
CCOc1ccc(S(=O)(=O)N(CC)CC(=O)NCc2ccncc2)cc1	10.2%
COc1ccc(-n2c(=O)c(CCC(=O)NCCc3ccccc3F)nc3ccccc32)cc1	8.72%
CC(=O)Nc1cccc(-c2nc3ccccc3s2)c1	1.52%
Cc1noc(C)c1CSCC(=O)Nc1ccccc1N1CCCCC1	6.77%
O=C(c1ccccc1)N1CCN(C(=O)c2ccc3c(c2)OCO3)CC1	15.6%
COc1ccc(C2c3ccc(O)cc3Oc3ncn(Cc4ccco4)c(=N)c32)cc1 (centres unmarked)	-43.5%
COc1cc(/C=C2/SC(=S)N(CC(=O)NC(C)(C)C)C2=O)cc(OC)c1OC	9.01%
COc1ccc(NC(=O)CN(C2CCCCC2)S(C)(=O)=O)cc1OC	8.91%
O=C(COc1ccccc1N1C(=O)C2C3C=CC(C3)C2C1=O)c1ccccc1 (centres unmarked)	14.4%
Clc1ncccc1-c1nnn(-c2ccccc2)n1	10.9%
O=C(Cn1ccc(NC(=O)OCc2ccccc2)nc1=O)NCCc1c[nH]c2ccccc12	11.3%
C1CCN=C(Nc2nn[nH]n2)CC1	16.2%
CCOc1cccc(CNCCCSc2ncccn2)c1.Cl	2.55%
COc1ccc(NC(=S)NCc2ccc(S(N)(=O)=O)cc2)cc1OC	19%
